Measured values: ChEMBL document CHEMBL1157539, “Thousands of chemical starting points for antimalarial lead identification” (Nature, 2010)
The full ranking holds about 13,000 compounds; the median of “IFI” is about 4, and the highest 2% start at about 17. The list shows a part of the results.

Experiment: GSK_TCMDC: Inhibition Frequency Index (IFI). The number of non-kinase HTS assays where a compound showed > 50 % inhibition, expressed as a percentage of the number of such assays in which the compound was tested (-0 is zero)
Assay type: functional

Structure (SMILES) | IFI
O=C(Nc1ccc(OC2CCN(Cc3ccsc3)C2)c(Cl)c1)c1cccs1 (stereo not given) | -0%
CCCCCC(C)N/C(=N/c1ccccc1Br)Nc1ccc([N+](=O)[O-])cc1O (stereo not given) | 6.47%
Nc1c(Cl)cc(C(O)CNCCCCCCOCCc2ccc(CO)s2)cc1Cl (stereo not given) | 3.08%
CN(C)CCCc1cc2c(cc1Cl)CCN2C(=O)Nc1ccc(-c2ccncc2)c2ccccc12 | 1.54%
COc1ccc(CNCc2cccc(-c3ccc(-c4nc5cc(C(F)(F)F)ccc5[nH]4)cc3)c2)cc1 | 12.5%
CC(Cc1ccc(OCCCCOc2ccccc2)cc1)NCCc1ccc(Oc2ccccc2)cc1 (stereo not given) | 18.2%
O=C(C1COc2ccccc2O1)N(CCCn1ccnc1)Cc1csc(-c2ccc(CNCc3ccccc3)cc2)n1 (stereo not given) | 2.74%
CC(C)CNCc1cccc(-c2cccc(CN(CCN(C)C)C(=O)NCCc3ccccc3)c2)c1 | 5.11%
CCN(CCCN1CCCCC1)c1cc(C)nc(Nc2ccc(C(F)(F)F)cc2)n1 | 1.28%
O=C(NC1CCCCC1)N(Cc1ccc(-c2cccc(CNC3CCCC3)c2)cc1)C1CCN(Cc2ccccc2)CC1 | 8.46%
O=C(Nc1ccc(C(F)(F)F)cc1)c1cccc(S(=O)(=O)NC2CCN(CC3CCCCC3)C2)c1 (stereo not given) | 14.5%
CCN(CC)C(C)(C)CN(Cc1ccc(-c2ccc(C(F)(F)F)cc2)cc1)C(=O)Cn1c(CCc2cccc(F)c2F)nc(=O)c2ccccc21 | 6.94%
OC(c1cccc(OCc2ccccc2)c1)C1CN(CCc2ccccc2)CCC1(O)c1ccccc1 (stereo not given) | 7.03%
CC(C)(C)c1ccc(CN2CCC(NC(=O)c3ccc(-c4cccc(C(F)(F)F)c4)s3)CC2)cc1 | 13%
COc1cc2nc(NCC3CCN(C(=O)c4ccc(-c5ccc(C(=O)N(C)C)cc5C)cc4)CC3)nc(N)c2cc1OC | 3.54%
CCN(CC)Cc1cccc(-c2cc3c(-c4ccc(C(=O)O)c(C(C)C)c4)ccnc3[nH]2)c1OC | -0%
CC(C)(C)c1ccc(CNC(=O)/C=C/c2ccc(-c3nc4cc(C(C)(C)C)ccc4[nH]3)cc2)cc1 | 1.48%
CN1CCN(CCCNCc2cccc(Nc3nccc(Nc4ccc(Oc5ccccc5)cc4)n3)c2)CC1 | 6.47%
CCOc1cc(C(=O)N[C@@H](Cc2ccccc2)[C@H](O)CNCc2cc(OC)cc(OC)c2)cc(N2CCCS2(=O)=O)c1 | 3.6%
CN(c1ccc(F)cc1)S(=O)(=O)c1ccc(Cl)c(C(=O)Nc2cccc(C#N)c2)c1 | 4.76%
Cc1cccc2nc(-c3cccc(-c4ccc(CNCc5cnn(-c6ccccc6)n5)cc4)c3)[nH]c12 | 1.64%
CCc1nc(N)nc(N)c1-c1ccc2c(c1)CCCC2 | 4.9%
Oc1ccc(CCNc2nc(N/N=C/C=C/c3ccc(Cl)cc3)nc(N3CCNCC3)n2)cc1 | 7.52%
Cc1cc(F)ccc1Nc1nc(N(C)c2ccccc2)c2cc(OCCN(C)C)ccc2n1 | 7.91%
COC(=O)c1cccc(NC(=O)NC2CCN(c3ccnc(NCc4ccc(F)cc4)n3)CC2)c1 | 5.88%
COc1cc(Nc2nccc(-c3c(-c4cccc(NC(=O)c5c(F)cccc5F)c4)nn4ncccc34)n2)cc(OC)c1OC | 9.42%
COc1cccc([C@@H](CC(=O)Nc2cc(C(F)(F)F)ccc2OC)Nc2ccc(C#N)c3ccccc23)c1 | -0%
CCn1cc2c3c(cc(C(=O)N[C@@H](Cc4ccccc4)[C@H](O)CNC4CCOCC4)cc31)N(C)S(=O)(=O)CC2 | 2.17%

Structure (SMILES) | IFI
Cc1cccc(CN2CCN(c3ncc(C(=O)NC4CC4)cc3Cl)CC2)c1 | -0%
COc1cc(F)c2nccc([C@@H](O)CN3CCC(NCc4cc5c(cc4F)OCCO5)CC3)c2c1 | 1.59%
COc1cc2nc(NCc3ccc(S(N)(=O)=O)cc3)nc(Nc3ccc(Oc4ccccc4)cc3)c2cc1OC | 5.15%
CNc1ccc(CNCc2ccc(-c3ccc(-c4nc5cc(C(F)(F)F)ccc5[nH]4)s3)cc2)cc1 | 16%
Cc1cccc2nc(-c3cccc(-c4cccc(CN5CCN(c6ccncc6)CC5)c4)c3)[nH]c12 | 10.6%
O=[N+]([O-])c1ccc(Oc2ccccc2CNCC2CCN(CC3CCCCC3)CC2)cc1 | 5.88%
O=C(Nc1cc(F)cc(F)c1)N1CCOC(CCN2CCC(c3ccccc3)CC2)(c2ccc(Cl)c(Cl)c2)C1 (stereo not given) | 8.11%
Cc1cc(-c2ccc(CN3Cc4ccccc4C3)cc2)ccc1S(=O)(=O)NCCN1CCCC1 | 13%
O=C(/C=C/c1ccc(Cl)c(Cl)c1)NCCC(CN1CCC(c2c[nH]c3ccccc23)CC1)c1ccccc1 (stereo not given) | 13.5%
CCC(C)c1ccc(NC(=O)Nc2ccnc3ccccc23)cc1 (stereo not given) | 10.2%
c1ccc(Oc2ccc(Nc3ccnc4cc(-c5ccc(CNCCN6CCOCC6)o5)ccc34)cc2)cc1 | 7.86%
O=C(Nc1cccc(-c2cccc(-c3nc4ccccc4[nH]3)c2)c1)c1csnn1 | 3.64%
Cc1csc2nc(-c3ccccn3)nc(Nc3ccc4ncsc4c3)c12 | 7.75%
CCNc1cc(C(=O)N[C@@H](Cc2ccccc2)[C@H](O)CNCCc2ccccc2)cc(N2CCCCS2(=O)=O)c1 | 1.46%
Cc1cc(C)c2ncc(C(=O)O)c(O)c2c1 | 1.46%
N=C(N)NCCCCN(Cc1ccccc1)c1ccccc1 | 7.97%
Cc1cccc(-c2cccc(CNc3nc(NCCc4ccc(O)cc4)nc(N4CCNCC4)n3)c2)c1 | 12.7%
CCC(CC)OC(=O)C(C)c1cccc(C(=O)c2ccccc2)c1 (stereo not given) | 1.49%
COc1cccc(CNc2noc(-c3c(-c4ccccc4)noc3C)n2)c1OC | 1.56%
COc1ccc2nccc([C@@H](O)CN3CCC(NC(=O)/C(=C/c4ccccc4)c4ccc(-c5ccccc5)cc4)CC3)c2c1 | 0%
COCCSc1nc2scc(C)c2c(=O)n1Cc1cccc(OC)c1 | 1.35%
COC(=O)Cn1c2ccccc2c2c(N)c(C(=O)OC)c(C)nc21 | -0%
COc1cc(OC)cc(-c2nnc(Sc3ccc(C#N)c([N+](=O)[O-])c3)n2C)c1 | 2.13%
CNc1nc(N/N=C/c2cc3c(cc2[N+](=O)[O-])OCO3)nc(Nc2cccc(C(F)(F)F)c2)n1 | 2.14%
COc1ccc(Cc2c(Cl)nc3nc(N)nc(N)c3c2C)cc1 | 2.7%
CN1CCN(CCCN(Cc2cccc(-c3ccc(CNCCc4ccccc4)cc3)c2)C(=O)Nc2ccccc2)CC1 | 10.7%
Cc1ccc(Cc2cccc3nc(N)nc(N)c23)cc1 | 4.7%
